Source: paper PMC4336329 (PLoS ONE, 2015)
The whole screen tested about 310,000 compounds, of which about 14,000 (4.5%) showed an effect of 50% or more. Effects have a minus sign here. Some of the results follow.

Biological target: human ether-à-go-go-related gene (hERG) potassium channel (human, UniProt Q12809)
Test: primary screen, population patch clamp on CHO cells stably expressing hERG
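Further: peak tail current of the secondary pulse compared with the same well before compound.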

Chain of human ether-à-go-go-related gene (hERG) potassium channel (Q12809 whole entry, looked up): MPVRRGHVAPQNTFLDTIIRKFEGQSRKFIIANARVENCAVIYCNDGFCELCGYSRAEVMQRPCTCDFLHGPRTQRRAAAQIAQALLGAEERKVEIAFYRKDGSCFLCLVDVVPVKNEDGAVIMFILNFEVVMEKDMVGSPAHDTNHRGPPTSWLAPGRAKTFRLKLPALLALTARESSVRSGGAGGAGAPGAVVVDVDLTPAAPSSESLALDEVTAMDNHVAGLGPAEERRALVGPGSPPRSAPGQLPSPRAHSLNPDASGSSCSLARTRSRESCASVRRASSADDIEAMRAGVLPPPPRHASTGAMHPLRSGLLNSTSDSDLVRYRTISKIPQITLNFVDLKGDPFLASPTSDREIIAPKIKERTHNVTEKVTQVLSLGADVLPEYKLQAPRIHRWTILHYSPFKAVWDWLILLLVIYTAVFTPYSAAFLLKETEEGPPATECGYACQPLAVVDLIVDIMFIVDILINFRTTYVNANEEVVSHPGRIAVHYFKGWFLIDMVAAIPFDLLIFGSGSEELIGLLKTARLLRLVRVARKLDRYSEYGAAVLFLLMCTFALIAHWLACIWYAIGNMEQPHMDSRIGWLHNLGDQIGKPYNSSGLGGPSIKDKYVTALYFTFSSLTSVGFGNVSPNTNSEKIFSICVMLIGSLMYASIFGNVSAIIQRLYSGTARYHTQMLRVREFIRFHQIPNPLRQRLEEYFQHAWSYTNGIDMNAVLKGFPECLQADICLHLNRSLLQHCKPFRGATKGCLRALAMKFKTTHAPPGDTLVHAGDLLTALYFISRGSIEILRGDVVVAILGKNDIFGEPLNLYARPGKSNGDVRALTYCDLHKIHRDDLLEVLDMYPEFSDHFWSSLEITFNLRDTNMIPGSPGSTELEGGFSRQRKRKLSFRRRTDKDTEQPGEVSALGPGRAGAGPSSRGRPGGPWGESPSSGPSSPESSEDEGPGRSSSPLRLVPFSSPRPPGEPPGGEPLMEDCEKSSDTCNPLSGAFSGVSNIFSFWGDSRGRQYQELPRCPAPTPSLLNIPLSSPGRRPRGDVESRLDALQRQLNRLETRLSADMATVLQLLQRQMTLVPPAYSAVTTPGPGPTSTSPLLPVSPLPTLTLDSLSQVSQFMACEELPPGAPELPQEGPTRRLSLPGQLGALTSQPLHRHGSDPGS

In order of falling “hERG current change (%, negative = inhibition) at 10uM” value:
1. CN1CCCC(OC(=O)/C(C#N)=C/c2ccccc2)C1.Cl (centres unmarked)  26.8%
2. COc1ccc(NC(=O)NCc2ccco2)cc1OC  25.2%
3. O=C(O)CSCC(=O)N1CCN(S(=O)(=O)c2ccccc2)CC1  21.7%
4. Cc1ccc(C(=O)Nc2ccc(C(=O)O)cc2)cc1S(=O)(=O)NCc1ccccc1  19.5%
5. O=C(NC1CCN(c2ncccn2)CC1)c1ccccc1F  18.6%
6. Cc1ccc(O)c(NC(=S)NC(=O)Cc2ccc(Cl)cc2)c1  18.1%
7. COCCNC(=O)CS(=O)Cc1nc(-c2ccc(OC)cc2)oc1C (centres unmarked)  17%
8. COc1ccc(CCNC(=O)CSc2n[nH]c(N)n2)cc1  15.8%
9. CN(C)CCNc1oc(COc2ccc(Cl)cc2Cl)nc1C#N  15.3%
10. O=C(CCC(=O)N(c1cccc(F)c1)C(C(=O)NC1CCCC1)c1ccncc1)Nc1cccnc1 (centres unmarked)  14.3%
11. N#C/C(=N\Nc1ccc(Cl)cc1)C(=O)c1ccccc1  13.3%
12. CC1SC(=S)N(c2ccc(N(C)C)cc2)C1=O (centres unmarked)  13.1%
13. OC1CCCC1  12.6%
14. COC(=O)CCn1nnc(-c2ccc(C)cc2)n1  12.3%
15. CC(C)[C@H]1C=C(C(=O)O)O[C@@H](OCCCCO)C1  12.1%
16. O=C(Nc1nc2ccccc2[nH]1)C1CC1  11.9%
17. COc1cc(C(=O)Nc2c(C(=O)O)[nH]c3ccc(Br)cc23)cc(OC)c1OC  11.8%
18. O=c1cc(-c2ccccc2)[nH]c2nc3ccccc3n12  11.7%
19. CCOC(=O)c1sc(NS(=O)(=O)c2ccccc2)nc1C  10.4%
20. COC(=O)C1=CN(c2ccc(F)cc2)C=C(C(=O)OC)C1c1cccc(Br)c1  10.1%
21. Cc1ccc(C)c(NC(=O)CNS(=O)(=O)c2ccccc2)c1  9.63%
22. Cc1ccccc1NC(=O)NC1(C(=O)N2CCCC2)CCCCC1  9.33%
23. CCN(CC(=O)Nc1ccc(N2CCOCC2)cc1)C(=O)c1ccc(C#N)cc1  8.85%
24. Cc1ccc(S(=O)(=O)NC2=NCN(CCN3CCOCC3)CN2)cc1  8.55%
25. Cn1c(O)c(C2=NN(C(=O)CCl)C(c3ccccc3)C2)c(=O)n(C)c1=O (centres unmarked)  8.39%
26. S=C1NCCOCCOCCOCCOCCNC(=S)N2CCOCCOCCN1CCOCC2  8.16%
27. O=C(NC1CCCCC1)c1cccnc1Sc1ccccc1Cl  7.67%
28. COc1cc(O)c2c(c1)OC(C)(C)CC2=O  7.38%
29. COc1ccc(CCNC(=O)C(C(=O)c2ccccc2)n2cc(Cl)ccc2=O)cc1OC (centres unmarked)  7.31%
30. Oc1ccccc1-c1cc(-c2ccc(F)cc2)n[nH]1  7.05%
31. CC(C)CNC(=O)c1ccc(Cl)c(NC(=O)COc2ccccc2)c1  6.97%
32. Cc1cccc(N=Nc2c(N)n[nH]c2-c2ccc(Cl)cc2)c1  6.59%
33. Cc1cccc2c1CC(C)(C)N=C2C1=C(O)CC(C)(C)CC1=O  6.37%
34. COc1cccc(OCc2cc(C(=O)N3CCN(c4ccccc4OC)CC3)no2)c1  6.19%
35. COc1cc(-c2csc(NC3CCCCC3)n2)cc(OC)c1OC  5.84%
36. O=C(Cc1ccccc1)NC1CCS(=O)(=O)C1 (centres unmarked)  5.34%
37. COc1ccc(C(C)(C)C)cc1NC(=O)c1cncc(Br)c1  4.74%
38. O=C(O)c1cccc(Cn2cc(Br)cn2)c1  4.68%
39. O=C(CCNC(=O)c1ccccc1)NCC1CCCCC1  4.32%
40. Cc1[nH]c(=O)[nH]c(=O)c1CSCC(=O)OCC(=O)Nc1ccccn1  3.79%
41. Fc1cccc(CCN2CCNC[C@@H]2c2ccccc2)c1  3.63%
42. O=C(Nc1ccc(S(=O)(=O)NC2CCCCC2)cc1)c1ccc(Br)o1  3.38%
43. CCc1noc(C)c1C(=O)Nc1nc(-c2ccc(NC(C)=O)cc2)cs1  1.49%
44. CC(=O)NC(C)c1cc(Cl)c2ccccc2c1O (centres unmarked)  1.04%
45. COC(=O)c1c(N)sc(C(C)=O)c1C  0.466%
46. COc1cc(C(=O)Oc2ccccc2N)cc(OC)c1OC  0.207%
47. COc1cc(NC(=O)c2ccc(CNc3c(N4CCCC4)c(=O)c3=O)cc2)cc(OC)c1OC  -0.986%
48. CN1CCC(N(C)S(=O)(=O)c2ccc(NC(=O)COc3ccc(Br)cc3Cl)cc2)CC1  -1.05%
49. Cc1cccc2cc(CN(Cc3ccco3)C(=O)c3cccs3)c(=O)[nH]c12  -1.63%
50. O=C(NCCO)c1cccc2c1C(=O)c1ccccc1-2  -1.93%
51. COc1ccc(CC(=O)NCc2nc(-c3ccccc3)no2)cc1  -1.97%
52. C=CCNc1nc(N)c([N+](=O)[O-])c(NCCO)n1  -2.15%
53. CCOC(=O)C1C(=O)C=C(C)C(C(=O)OCC)C1c1cccc([N+](=O)[O-])c1 (centres unmarked)  -3.71%
54. COC(=O)c1nn(-c2ccc(-c3ccccc3)cc2)cc1O  -3.85%
55. COc1ccccc1N1CCN(C(=O)c2cc(C(C)(C)C)oc2C)CC1  -4.04%
56. COc1ccc(NS(=O)(=O)c2cccc(NC(=O)CCS(=O)(=O)c3ccccc3)c2)cc1  -4.41%
57. O=[N+]([O-])c1ccc(C2Oc3ccccc3C3CC(c4ccccc4)=NN32)s1 (centres unmarked)  -4.6%
58. O=C(Cn1nc(-c2ccco2)ccc1=O)Nc1cc(Cl)ccc1Cl  -5.12%
59. Cc1ccc(S(=O)(=O)CC(N)=O)cc1  -6.1%
60. CC1=C([N+](=O)[O-])C(c2cccc(Br)c2)C2=C(N1)c1ccccc1C2=O (centres unmarked)  -6.87%
61. C/C=C\C=C/C(=O)Nc1cccc(C2=NOC3(C2)C[C@@H](C(N)=O)N(C(=O)COc2ccc(Cl)cc2)C3)c1 (some centres unmarked)  -7.47%
62. CSCCC(NS(=O)(=O)c1cccc(C(F)(F)F)c1)C(=O)N(C)Cc1ccc2c(c1)OCCO2 (centres unmarked)  -8.66%
63. Cc1nnc(SCC(=O)Nc2cc(C(F)(F)F)ccc2N2CCOCC2)o1  -9.56%
64. COc1ccccc1NC(=S)NN1CCN(C)CC1  -10.6%
65. Cc1ccc(-c2nn(CC(=O)O)c(=O)c3ccccc23)cc1  -10.7%
66. Cn1nc(C(=O)Nc2cc(Cl)ccc2N2CCCC2)c2ccccc2c1=O  -11.7%
67. COc1ccc(NC(=O)CN(C)C(=O)CCCc2c[nH]c3ccccc23)cc1  -11.7%
68. Cc1ccc([N+](=O)[O-])cc1S(=O)(=O)Nc1cccc(-c2ccc(N3CCOCC3)nn2)c1  -13%
69. Cc1ccccc1Nc1nc(N)nc(COC(=O)CCS(=O)(=O)c2ccccc2)n1  -14.4%
70. CCN(CC)C(=O)Cn1cc(S(=O)(=O)CC(=O)NCc2ccc(F)cc2)c2ccccc21  -14.7%
71. COc1ccc(OC)c(NC(=O)C2CC2c2ccccc2)c1 (centres unmarked)  -14.9%
72. CCOC(=O)CCc1c(C)n(CC)c2cc(-c3ccccc3OC)nn2c1=O  -17.7%
73. Cc1cc(NC(=O)CSCC(=O)NCc2cccc(C(F)(F)F)c2)no1  -18.7%
74. CC(C)CC1Nc2ncnc(N3CCCCC3)c2N(Cc2ccccc2)C1=O.O=C(O)C(F)(F)F (centres unmarked)  -22.8%
75. O=C(CN1CCc2ccccc2C1)Nc1ccccc1C(=O)NC1CC1  -24.5%
76. CCN(CC(=O)Nc1ccc(NC(C)=O)cc1)C(=O)c1ccc(N2CCC(C)CC2)c([N+](=O)[O-])c1  -25.5%
77. CC(OC(=O)c1ccc(S(=O)(=O)N2CCOCC2)cc1)c1ccccc1 (centres unmarked)  -28.9%
78. COC(C(=O)NC(C(C)C)C(C)C)c1ccccc1 (centres unmarked)  -32.2%
79. COc1ccccc1NS(=O)(=O)c1cccc(C(=O)OCC(=O)Nc2cc(C)on2)c1  -33.9%
80. COc1ccc(N(CC(=O)NCc2cccnc2)S(=O)(=O)c2ccc(C)c([N+](=O)[O-])c2)cc1  -36.6%
81. O=C(CCN1CCc2ccccc2C1)Nc1ccc(F)cc1  -38.7%
82. CCOC(=O)N1CCN(C(=O)CN(c2cccc(C(F)(F)F)c2)S(=O)(=O)c2ccccc2)CC1  -43.6%
83. COC(=O)C1=C(C)N(Cc2ccccc2)C(=NCC(C)C)N[C@H]1c1ccccc1  -55.9%
84. Cn1c(=O)c2c(nc(CN3CCN(Cc4ccccc4)CC3)n2Cc2cccc(Cl)c2)n(C)c1=O  -59.2%
85. O=C(N/N=C/c1cn(-c2ccccc2)nc1-c1cccnc1)c1ccccc1  -60.7%
86. CC1(C)CC(=O)C=C(Nc2ccc(OCC(F)(F)C(F)F)cc2)C1  -65.7%
87. CC(=O)N1CCN(c2ccc(Nc3ncnc4c3oc3ccccc34)cc2)CC1.Cl  -65.9%
88. N#Cc1ccccc1S(=O)(=O)N1CCN(CC(=O)Nc2ccccc2C(=O)NC2CC2)CC1  -66.5%
89. CCOc1ccccc1CN1CCCC(C(=O)Nc2cccc(-n3cccn3)c2)C1 (centres unmarked)  -69.5%
